The campaign covered roughly 150,000 compounds. About 540 (0.36%) showed an effect of 50% or more. The list shows a part of the results.
These compounds were tested on Plasmodium falciparum (assay: Primary screen in NF54 nanoGlo assay, in single point, at 2uM, 72h; a lower Z score goes with more inhibition). Settings: timepoint 72 hour.
Type: functional, Erythrocyte

| Structure (SMILES) | % Inhibition [%] | Z score |
| --- | --- | --- |
| O=C(C1CCc2cn[nH]c2C1)N1CCOC(C2CCCCC2)C1 (stereo not drawn) | -9 | 1.47 |
| CCCn1cc(C(=O)N2CCNC[C@](C)(F)C2)cn1 | 0 | 0 |
| COC(=O)c1ccc2c(c1)CCCCN2Cc1ncnn1C | 0 | -0.07 |
| c1ccc2cc(Nc3ccc(Nc4ccc5ccccc5c4)cc3)ccc2c1 | 27 | -3.54 |
| CCS(=O)(=O)NC[C@H]1CCN(Cc2ccco2)C1 | -11 | 2.05 |
| Cn1nnc(Cn2cccc(C(F)(F)F)c2=O)n1 | -15 | 1.52 |
| COc1cccc([C@H]2CN(C(=O)c3cc(C)oc3C)C[C@@H]2C(=O)O)c1OC | -5 | 0.62 |
| C[C@H](O)c1onc(-c2ccccc2)c1C(=O)N1CCCCCC1 | 2 | -0.33 |
| COc1ccccc1-c1ccc2oc([C@@H]3CCCN3C(=O)c3cccc(Cl)c3)nc2c1 | -14 | 1.9 |
| CN1CC2(CCN(C(=O)C3CCCCC3)CC2)C[C@@H]1CN1CCOCC1 | -14 | 2.72 |
| CCn1c(-c2cccnc2)nc2cc(NC(=O)COC)cc(C(=O)NCc3ccc(F)cc3)c21 | -18 | 3.24 |
| Cc1nc(C(=O)Nc2nc(CC(C)(C)C)cs2)c[nH]1 | -1 | 0.2 |
| Cc1nc(C)c(S(=O)(=O)N2CCC[C@H](c3cn[nH]c3)C2)s1 | -12 | 2.35 |
| COc1c(C)cnc(Cn2cnc(N)n2)c1C | 8 | -0.99 |
| Cc1cnc(C(C)(C)NCC(=O)Nc2cccc(C(=O)NC3CC3)c2)s1 | -7 | 0.72 |
| CCC1CCC(NCCCn2ccnc2)CC1 (stereo not drawn) | -3 | 0.5 |
| COCCc1nc(CCCn2cccn2)n([C@H]2CCS(=O)(=O)C2)n1 | -6 | 0.87 |
| Cc1cc(C(=O)N2CCCC[C@H]2C(=O)NCC(F)F)cc(O)n1 | -11 | 1.63 |
| Cc1ncsc1-c1ccc(CNC(=O)CC2(CO)CC2)cc1 | -7 | 0.96 |
| CC(C)N1CCC[C@H](Nc2cccc(CO)c2)C1=O | -13 | 1.2 |
| CCS(=O)(=O)N1CC(=O)N(c2ccc(C)cc2)[C@](C)(C(=O)NCc2ccc(F)cc2)C1 | -11 | 1.4 |
| CCS(=O)(=O)C[C@H](C)N(C)C(=O)CCc1ccc(OC)c(F)c1 | -7 | 0.94 |
| COc1ccc(C(=O)N[C@@H]2CCC[C@@H]2C(=O)N2CCN(c3ncccn3)CC2)cn1 | -15 | 2.02 |
| CC(C)CN1CCCN(C(=O)Cn2ccc(=O)cc2)CC1 | 5 | -0.74 |
| O=C(N1CCCCCC1)N1CCOCC1 | -9 | 1.11 |
| O=C(Nc1ccccc1)N[C@H]1C[C@H]2C(=O)NC[C@@H](CCC(=O)N3CCN(c4ccccn4)CC3)N2C1 | -16 | 2.41 |
| COc1ccnc(N2CCC[C@@]3(CCC(=O)N(Cc4ccccn4)C3)C2)n1 | 2 | -0.26 |

| Structure (SMILES) | % Inhibition [%] | Z score |
| --- | --- | --- |
| O=c1[nH]c2ccccc2c(=O)n1C[C@H]1CC[C@H](C(=O)NC2CC2)CC1 | 0 | -0.02 |
| CC(C)n1cnnc1[C@H](C)NC(=O)CN(C)C1CCCC1 | 3 | -0.58 |
| CCCCCNC(=O)[C@H](C#N)C(=O)N1CCOCC1 | -10 | 1.4 |
| COC(=O)CC[C@H]1NC(=O)N(c2ccc(-c3csnn3)cc2)C1=O | 17 | -2.14 |
| COc1ccc(CN2CC[C@H]3CN(C(C)=O)C[C@@]3(CO)C2)cc1OC | 3 | -0.52 |
| CCOCC1(c2nc(-c3cccc(N4CCN(C)CC4)n3)no2)CC1 | 5 | -0.62 |
| Cn1cnc(C(=O)N2CCCc3c(Br)c(F)cc(F)c32)n1 | -6 | 0.88 |
| COc1ccccc1[C@@H](NC(=O)c1ccc2c(=O)n3c(nc2c1)CCCCC3)c1nccn1C | 9 | -1.36 |
| O=C(N[C@H]1CC12CC2)c1ccncc1F | 32 | -4.56 |
| COc1ccc(-n2nc(C)c3c2NC(=O)C[C@@H]3c2ccccc2OCc2cccc(F)c2)cc1 | 8 | -0.91 |
| CCc1nc(C)c(-c2c(-c3ccccc3)ncn2CC(C)(C)N2CCOCC2)[nH]1 | 0 | 0.06 |
| Cc1cc(C(=O)N(c2cccc(F)c2)C2CCCC2)n(C)n1 | -5 | 0.82 |
| CC(=O)N1CCCN(Cc2ccc(N3CCCCC3)c(C)c2)CC1 | 2 | -0.33 |
| CC(=O)n1cc(-c2nnc3cnccn23)c2ccccc21 | -11 | 2.09 |
| Cc1cc(C(F)(F)F)cc(N2C[C@H](NC(=O)CO)[C@@H](C3CC3)C2)n1 | -26 | 2.3 |
| Cc1cccc(F)c1CNC(=O)C1C[C@H]2C[C@@H](N)[C@H]2C1 (stereo partly drawn) | 1 | -0.16 |
| O=C(Cc1noc2ccccc12)Nc1cc(Cl)cc(C(=O)O)c1 | -5 | 0.88 |
| Cc1ncsc1Cn1cc(CN2CCOC[C@H]2C)nn1 | -4 | 0.73 |
| CCS(=O)(=O)CCNC(=O)Cc1c[nH]c2cc(C)ccc12 | -9 | 0.74 |
| COc1ccc(COCC(=O)N2CCC(F)(c3ccc(Cl)cc3)CC2)cn1 | 1 | -0.11 |
| O=S(=O)(CCN1CC(n2cccn2)C1)c1ccc(Cl)cc1 | 3 | -0.43 |
| CNCCCOc1c(C)cc(Br)cc1C | 11 | -1.78 |
| CC(C)NS(=O)(=O)c1ccc2c(c1)nnn2CCNC(=O)NC(C)(C)C | -22 | 2.26 |
| Cc1cccc(NC(=O)N2CCN(C3CC3)[C@H](C(N)=O)C2)c1F | -8 | 1.17 |
| CC1(C)C[C@@H]1C(=O)NC1C(C)(C)C1(C)C | 2 | -0.37 |
| Nc1ncc(Cl)cc1S(=O)(=O)Oc1ccc2c(c1)CCC(=O)N2 | 32 | -3.63 |
| COc1cc(CCC(=O)N2CCOc3c(F)cc(F)cc32)on1 | 2 | -0.35 |
